Assays:
[1] = system: U937 human histiocytic leukemia cell line; test: Inhibition of TSQ induced necroptosis, 384 well plate format (CellTitre-Glo); conditions: Homo sapiens, U-937; U937 cells, TSQ cocktail (TNF, Smac mimetic, Q-VD-OPh), CelltiterGlo; read-out: Inhibition of TSQ-induced necroptosis (IC50 cell-based assay)
Description: […] ASSAY: Screening compounds for inhibition of TSQ induced necroptosis, 384 well plate format.
Cell Line ID: U937 human histiocytic leukemia cell line.
Cell Concentration (cells/well): Final cell density is 20000 cells per well.
Cell growth medium: HT-RPMI medium+7.4% Fetal Bovine Serum (FBS). Cells are cultured in Corning 150 cm^2 tissue culture flasks with vented caps at 37° C./5% CO2.
Incubation: Plates were incubated at 37° C./5% CO2 in a humidified incubator for 48 hours following addition of compounds and death stimuli (TSQ cocktail).
Compound concentration: 36 μM starting concentration, 1:3 dilution, 10 point
DMSO final concentration (% v/v): 0.3%.
Compounds in TSQ cocktail (T: TNF; S: Smac mimetic; Q: Q-VD-OPh) and their final concentrations:
hTNF-Fc (100 ng/ml)—produced by standard procedures as shown in Bossen et al., J Biol Chem, 2006, 281(20), 13964-13971. […]
The cellular assay was carried out according to the following steps: • 1. […] Read luminescence readout on a plate reader. […]
Percent viability was calculated for each compound according to equation (2):
[formula] • wherein • RawData is the readout of any cell containing a compound of the invention • TA is the total activity provided by the luminescence readout from DMSO only wells (columns 2 and 24)=100% viability • NSA is the non-specific activity provided by DMSO+TSQ wells (columns 1 and 23)=0% viability […]

RIP1 = target: T1, RIP1 (Homo sapiens, UniProt Q13546); test: KINOMEscan binding assay, RIP1; conditions: equilibrium dissociation constant, class symbols
T1 construct: purchased DiscoverX (KINOMEscan service); host or cells: E. coli BL21-derived (T7 phage) or HEK293
T1 sequence (Q13546 1-671): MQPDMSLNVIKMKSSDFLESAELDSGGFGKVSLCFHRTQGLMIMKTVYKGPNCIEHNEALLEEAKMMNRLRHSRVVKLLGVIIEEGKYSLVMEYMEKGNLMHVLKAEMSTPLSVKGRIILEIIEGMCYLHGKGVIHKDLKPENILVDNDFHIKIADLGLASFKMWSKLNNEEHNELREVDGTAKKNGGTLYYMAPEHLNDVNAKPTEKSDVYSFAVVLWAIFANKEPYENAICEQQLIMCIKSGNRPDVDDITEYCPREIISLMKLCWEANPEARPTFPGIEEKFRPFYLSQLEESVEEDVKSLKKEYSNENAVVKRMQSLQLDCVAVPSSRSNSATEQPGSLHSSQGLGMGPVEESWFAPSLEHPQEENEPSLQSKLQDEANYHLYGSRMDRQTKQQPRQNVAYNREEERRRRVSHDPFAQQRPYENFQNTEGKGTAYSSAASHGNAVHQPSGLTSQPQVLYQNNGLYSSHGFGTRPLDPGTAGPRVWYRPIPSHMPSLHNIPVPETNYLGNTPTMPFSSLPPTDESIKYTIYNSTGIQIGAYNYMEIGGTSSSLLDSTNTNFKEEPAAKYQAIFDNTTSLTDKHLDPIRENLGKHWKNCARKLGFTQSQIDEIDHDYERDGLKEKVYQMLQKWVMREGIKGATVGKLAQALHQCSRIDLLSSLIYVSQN

RIP3 = target: T2, RIP3 (Homo sapiens, UniProt Q9Y572); test: KINOMEscan binding assay, RIP3; conditions: equilibrium dissociation constant, class symbols
T2 construct: purchased DiscoverX (KINOMEscan service); host or cells: E. coli BL21-derived (T7 phage) or HEK293
Excerpt: The Hill Slope was set to −1.

U937 cells = test: Counter screen: cell viability without the TSQ cocktail (CelltiterGlo); set-up: species or system human; conditions: Homo sapiens, U-937, cell viability by CelltiterGlo, read-out: Off-target effect (IC50 cell-based assay)
Description: Counter screen: In parallel, all compounds were tested for their ability to affect cell viability. The same U937 cells were treated with compound in DMSO without the TSQ cocktail. This counter screen enabled evaluation of off-target effects. In this case, cell viability was measured by CelltiterGlo.

T2 sequence (Q9Y572 whole entry): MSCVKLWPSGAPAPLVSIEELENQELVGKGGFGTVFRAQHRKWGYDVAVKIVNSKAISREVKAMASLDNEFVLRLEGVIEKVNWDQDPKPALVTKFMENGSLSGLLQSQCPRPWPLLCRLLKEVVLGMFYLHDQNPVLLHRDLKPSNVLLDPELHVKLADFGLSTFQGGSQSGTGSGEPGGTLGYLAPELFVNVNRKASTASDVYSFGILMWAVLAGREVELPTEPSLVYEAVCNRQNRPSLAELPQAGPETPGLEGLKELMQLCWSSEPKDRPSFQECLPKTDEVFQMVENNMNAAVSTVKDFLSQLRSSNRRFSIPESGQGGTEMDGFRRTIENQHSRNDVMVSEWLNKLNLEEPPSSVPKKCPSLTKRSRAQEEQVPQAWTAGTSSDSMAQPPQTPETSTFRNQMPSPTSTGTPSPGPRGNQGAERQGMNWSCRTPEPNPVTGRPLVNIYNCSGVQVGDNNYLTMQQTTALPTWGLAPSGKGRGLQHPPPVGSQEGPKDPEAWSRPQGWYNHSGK

| Kd (RIP1) [µM] | Kd (RIP3) [µM] | SMILES | IC50 [1] [µM] | IC50 (U937 cells) [µM] |
| --- | --- | --- | --- | --- |
|  |  | CCS(=O)(=O)Nc1ccc(-c2n[nH]c(Nc3cnccn3)c2C(N)=O)cc1OCc1ccc(Cl)cc1 [Compound 42, 3-(3-((4-chlorobenzyl)oxy)-4-(ethylsulfonamido)phenyl)-5-(pyrazin-2-ylamino)-1H-pyrazole-4-carboxamide] | 0.01 to 1 |  |
| > 30 | > 30 | CCS(=O)(=O)Nc1ccc(-c2n[nH]c(Nc3ccc(C(F)(F)F)cn3)c2C(N)=O)cc1 [Compound 93, 3-(4-(ethylsulfonamido)phenyl)-5-((5-(trifluoromethyl)pyridin-2-yl)amino)-1H-pyrazole-4-carboxamide] |  |  |
|  |  | C[C@H](Oc1cc(-c2n[nH]c(Nc3cc4n(n3)CCOC4)c2C(N)=O)ccc1NS(=O)(=O)C(F)F)c1ccc(F)cc1 [Compound 308, (S)-3-(4-((difluoromethyl)sulfonamido)-3-(1-(4-fluorophenyl)ethoxy)phenyl)-5-((6,7-dihydro-4H-pyrazolo[5,1-c][1,4]oxazin-2-yl)amino)-1H-pyrazole-4-carboxamide] | < 0.01 | > 30 |
